# Test results from the supplement of paper PMC8728848.
# Some of the results follow.
# Assays:
# Test in all cases: glycan array binding signal (z-score within array); higher = stronger binding
# Conditions in all cases: glycan notation: IUPAC condensed, linker removed
# [1] = molecular target: Gal(b1-4)Glc6S
# Method in brief: (§1)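 Negative Z-scores can be read as non-binding. The Z-score is calculated within each array and then averaged across arrays of one protein sequence at different concentrations or buffers and across linkers. Arrays, 3228 in all, were curated from the Consortium for Functional Glycomics database and kept only where the protein sequence was available.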
# [2] = molecular target: Gal(b1-4)GlcNAc
# Method in brief: as §1
# [3] = molecular target: Gal(b1-4)GlcNAc(a1-6)Gal(b1-4)GlcNAc
# Method in brief: as §1
# [4] = molecular target: Gal(b1-4)GlcNAc(b1-2)Man
# Method in brief: as §1
# [5] = molecular target: Gal(b1-4)GlcNAc(b1-2)Man(a1-3)Man(b1-4)GlcNAc(b1-4)GlcNAc
# Method in brief: as §1
# [6] = molecular target: Gal(b1-4)GlcNAc(b1-2)Man(a1-3)[Gal(b1-4)GlcNAc(b1-2)Man(a1-6)]Man(b1-4)GlcNAc(b1-4)GlcNAc
# Method in brief: as §1
# [7] = molecular target: Gal(b1-4)GlcNAc(b1-2)Man(a1-3)[Gal(b1-4)GlcNAc(b1-2)Man(a1-6)]Man(b1-4)GlcNAc(b1-4)[Fuc(a1-6)]GlcNAc
# Method in brief: as §1
# [8] = molecular target: Gal(b1-4)GlcNAc(b1-2)Man(a1-3)[Gal(b1-4)GlcNAc(b1-2)][GlcNAc(b1-4)]Man(b1-4)GlcNAc(b1-4)GlcNAc
# Method in brief: as §1
# [9] = molecular target: Gal(b1-4)GlcNAc(b1-2)Man(a1-3)[GlcNAc(b1-2)Man(a1-6)]Man(b1-4)GlcNAc(b1-4)GlcNAc
# Method in brief: as §1
# [10] = molecular target: Gal(b1-4)GlcNAc(b1-2)Man(a1-3)[Man(a1-6)]Man(b1-4)GlcNAc(b1-4)GlcNAc
# Method in brief: as §1
# [11] = molecular target: Gal(b1-4)GlcNAc(b1-2)Man(a1-6)Man(b1-4)GlcNAc(b1-4)GlcNAc
# Method in brief: as §1
# [12] = molecular target: Gal(b1-4)GlcNAc(b1-2)Man(a1-6)[GlcNAc(b1-2)Man(a1-3)]Man(b1-4)GlcNAc(b1-4)GlcNAc
# Method in brief: as §1
# [13] = molecular target: Gal(b1-4)GlcNAc(b1-2)Man(a1-6)[Man(a1-3)]Man(b1-4)GlcNAc(b1-4)GlcNAc
# Method in brief: as §1
# [14] = molecular target: Gal(b1-4)GlcNAc(b1-2)[Gal(b1-4)GlcNAc(b1-4)]Man(a1-3)[Gal(b1-4)GlcNAc(b1-2)Man(a1-6)]Man(b1-4)GlcNAc(b1-4)GlcNAc
# Method in brief: as §1
# [15] = molecular target: Gal(b1-4)GlcNAc(b1-2)[Gal(b1-4)GlcNAc(b1-4)]Man(a1-3)[Gal(b1-4)GlcNAc(b1-2)[Gal(b1-4)GlcNAc(b1-6)]Man(a1-6)]Man(b1-4)GlcNAc(b1-4)GlcNAc
# Method in brief: as §1
# [16] = molecular target: Gal(b1-4)GlcNAc(b1-2)[Gal(b1-4)GlcNAc(b1-4)]Man(a1-3)[GlcNAc(b1-4)][Gal(b1-4)GlcNAc(b1-2)Man(a1-6)]Man(b1-4)GlcNAc(b1-4)GlcNAc
# Method in brief: as §1
# [17] = molecular target: Gal(b1-4)GlcNAc(b1-2)[Gal(b1-4)GlcNAc(b1-4)]Man(a1-3)[GlcNAc(b1-4)][Gal(b1-4)GlcNAc(b1-2)[Gal(b1-4)GlcNAc(b1-6)]Man(a1-6)]Man(b1-4)GlcNAc(b1-4)GlcNAc
# Method in brief: as §1
# [18] = molecular target: Gal(b1-4)GlcNAc(b1-2)[Gal(b1-4)GlcNAc(b1-4)]Man(a1-3)[GlcNAc(b1-4)][Gal(b1-4)GlcNAc(b1-2)[Gal(b1-4)GlcNAc(b1-6)]Man(a1-6)]Man(b1-4)GlcNAc(b1-4)[Fuc(a1-6)]GlcNAc
# Method in brief: as §1
# [19] = molecular target: Gal(b1-4)GlcNAc(b1-2)[Gal(b1-4)GlcNAc(b1-6)]Man(a1-6)[Gal(b1-4)GlcNAc(b1-2)Man(a1-3)]Man(b1-4)GlcNAc(b1-4)GlcNAc
# Method in brief: as §1
# [20] = molecular target: Gal(b1-4)GlcNAc(b1-2)[Gal(b1-4)GlcNAc(b1-6)]Man(a1-6)[Gal(b1-4)GlcNAc(b1-2)Man(a1-3)]Man(b1-4)GlcNAc(b1-4)[Fuc(a1-6)]GlcNAc
# Method in brief: as §1
# [21] = molecular target: Gal(b1-4)GlcNAc(b1-2)[Gal(b1-4)GlcNAc(b1-6)]Man(a1-6)[GlcNAc(b1-4)][Gal(b1-4)GlcNAc(b1-2)Man(a1-3)]Man(b1-4)GlcNAc(b1-4)GlcNAc
# Method in brief: as §1
# [22] = molecular target: Gal(b1-4)GlcNAc(b1-3)Gal(b1-3)GlcNAc
# Method in brief: as §1
# [23] = molecular target: Gal(b1-4)GlcNAc(b1-3)Gal(b1-4)Glc
# Method in brief: as §1
# [24] = molecular target: Gal(b1-4)GlcNAc(b1-3)Gal(b1-4)GlcNAc
# Method in brief: as §1
# [25] = molecular target: Gal(b1-4)GlcNAc(b1-3)Gal(b1-4)GlcNAc(b1-3)Gal(b1-4)GlcNAc
# Method in brief: as §1
# [26] = molecular target: Gal(b1-4)GlcNAc(b1-3)Gal(b1-4)[Fuc(a1-3)GlcNAc(b1-6)]Gal(b1-4)Glc
# Method in brief: as §1
# [27] = molecular target: Gal(b1-4)GlcNAc(b1-3)Gal(b1-4)[Fuc(a1-3)]GlcNAc(b1-3)Gal(b1-4)[Fuc(a1-3)]GlcNAc
# Method in brief: as §1
# [28] = molecular target: Gal(b1-4)GlcNAc(b1-3)GalNAc
# Method in brief: as §1
# [29] = molecular target: Gal(b1-4)GlcNAc(b1-3)[Gal(b1-4)GlcNAc(b1-6)]Gal(b1-4)GlcNAc
# Method in brief: as §1
# [30] = molecular target: Gal(b1-4)GlcNAc(b1-3)[Gal(b1-4)GlcNAc(b1-6)]GalNAc
# Method in brief: as §1
# [31] = molecular target: Gal(b1-4)GlcNAc(b1-3)[GlcNAc(b1-6)]Gal(b1-4)GlcNAc
# Method in brief: as §1
# [32] = molecular target: Gal(b1-4)GlcNAc(b1-6)Gal(b1-4)GlcNAc
# Method in brief: as §1
# [33] = molecular target: Gal(b1-4)GlcNAc(b1-6)GalNAc
# Method in brief: as §1
# [34] = molecular target: Gal(b1-4)GlcNAc(b1-6)[Gal(b1-3)]GalNAc
# Method in brief: as §1
# [35] = molecular target: Gal(b1-4)GlcNAc6P
# Method in brief: as §1
# [36] = molecular target: Gal(b1-6)Gal
# Method in brief: as §1
# [37] = molecular target: Gal3S(b1-3)GalNAc
# Method in brief: as §1
# [38] = molecular target: Gal3S(b1-3)GlcNAc
# Method in brief: as §1
# [39] = molecular target: Gal3S(b1-3)[Fuc(a1-4)]GlcNAc
# Method in brief: as §1
# [40] = molecular target: Gal3S(b1-4)Glc
# Method in brief: as §1
# [41] = molecular target: Gal3S(b1-4)Glc6S
# Method in brief: as §1
# [42] = molecular target: Gal3S(b1-4)GlcNAc
# Method in brief: as §1
# [43] = molecular target: Gal3S(b1-4)GlcNAc6S
# Method in brief: as §1
# [44] = molecular target: Gal3S(b1-4)[Fuc(a1-3)]Glc
# Method in brief: as §1
# [45] = molecular target: Gal3S(b1-4)[Fuc(a1-3)]Glc6S
# Method in brief: as §1
binder,measurement,setting,value
CCL1 (Coprinopsis cinerea) (protein) MDTQAKPPAGRYVIYNRVLSPNGEKLALTYPGYQREALTLTPLHHSANQIWILNNWDATTSSLTPETARNTQVGWGSGNVPIVLPPGNYVWTLASSAGGYIIQDGGKTVYWNAGEAVANTKVSIGGDNGLQARWIFERV,glycan array binding signal (z-score),[1],-0.123
same,glycan array binding signal (z-score),[2],-0.162
same,glycan array binding signal (z-score),[3],-0.156
same,glycan array binding signal (z-score),[4],-0.167
same,glycan array binding signal (z-score),[5],-0.138
same,glycan array binding signal (z-score),[6],-0.138
same,glycan array binding signal (z-score),[7],-0.134
same,glycan array binding signal (z-score),[8],-0.109
same,glycan array binding signal (z-score),[9],-0.106
same,glycan array binding signal (z-score),[10],-0.13
same,glycan array binding signal (z-score),[11],-0.133
same,glycan array binding signal (z-score),[12],-0.109
same,glycan array binding signal (z-score),[13],-0.16
same,glycan array binding signal (z-score),[14],-0.129
same,glycan array binding signal (z-score),[15],-0.13
same,glycan array binding signal (z-score),[16],-0.16
same,glycan array binding signal (z-score),[17],-0.13
same,glycan array binding signal (z-score),[18],-0.127
same,glycan array binding signal (z-score),[19],-0.131
same,glycan array binding signal (z-score),[20],-0.143
same,glycan array binding signal (z-score),[21],-0.142
same,glycan array binding signal (z-score),[22],-0.146
same,glycan array binding signal (z-score),[23],-0.173
same,glycan array binding signal (z-score),[24],-0.171
same,glycan array binding signal (z-score),[25],-0.151
same,glycan array binding signal (z-score),[26],0.62
same,glycan array binding signal (z-score),[27],1.12
same,glycan array binding signal (z-score),[28],-0.14
same,glycan array binding signal (z-score),[29],-0.166
same,glycan array binding signal (z-score),[30],-0.153
same,glycan array binding signal (z-score),[31],-0.159
same,glycan array binding signal (z-score),[32],-0.154
same,glycan array binding signal (z-score),[33],-0.142
same,glycan array binding signal (z-score),[34],-0.154
same,glycan array binding signal (z-score),[35],-0.151
same,glycan array binding signal (z-score),[36],-0.137
same,glycan array binding signal (z-score),[37],-0.152
same,glycan array binding signal (z-score),[38],-0.121
same,glycan array binding signal (z-score),[39],-0.116
same,glycan array binding signal (z-score),[40],-0.14
same,glycan array binding signal (z-score),[41],-0.083
same,glycan array binding signal (z-score),[42],-0.123
same,glycan array binding signal (z-score),[43],-0.062
same,glycan array binding signal (z-score),[44],-0.13
same,glycan array binding signal (z-score),[45],-0.075
